Test results: the supplement of paper PMC3334620
In all, about 33,000 sequences were measured (“E-score (-0.5 to 0.5)”: median about -0.032, highest 2% from about 0.36 on). The list shows a part of the results.

Target: T1, Sko1 (UniProt Q02100)
T1 sequence: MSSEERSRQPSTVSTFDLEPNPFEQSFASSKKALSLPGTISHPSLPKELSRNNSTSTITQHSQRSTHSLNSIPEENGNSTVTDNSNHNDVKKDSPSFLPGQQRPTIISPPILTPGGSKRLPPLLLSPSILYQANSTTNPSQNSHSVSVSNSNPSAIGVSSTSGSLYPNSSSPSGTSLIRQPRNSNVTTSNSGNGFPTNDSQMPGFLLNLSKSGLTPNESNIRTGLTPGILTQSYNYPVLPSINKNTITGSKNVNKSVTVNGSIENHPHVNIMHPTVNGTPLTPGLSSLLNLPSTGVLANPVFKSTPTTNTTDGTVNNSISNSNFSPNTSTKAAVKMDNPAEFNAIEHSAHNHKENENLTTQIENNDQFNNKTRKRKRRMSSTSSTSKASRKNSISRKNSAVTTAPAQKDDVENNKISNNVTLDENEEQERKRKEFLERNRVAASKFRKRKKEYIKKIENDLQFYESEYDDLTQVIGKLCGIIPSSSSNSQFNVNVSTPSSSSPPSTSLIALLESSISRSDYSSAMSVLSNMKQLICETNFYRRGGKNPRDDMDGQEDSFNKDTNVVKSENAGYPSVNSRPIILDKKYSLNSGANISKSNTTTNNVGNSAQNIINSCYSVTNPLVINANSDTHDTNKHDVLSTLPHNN
Experiment: PBM E-score (8-mer binding enrichment) (E-score (-0.5 to 0.5)); higher = stronger / more preferred TF binding; most listed sequences are background and not binding sites
Settings: protein concentration: 200 nM; construct: GST-full length
In short: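 Each ungapped eight-base word and its reverse complement, pooled, received an E-score from the Universal PBM Analysis Suite. Underlying scans, normalised with masliner, recorded fluorescent anti-GST bound to GST-tagged yeast transcription factors. These were applied at about 100-200 nM to universal all-10-mer Agilent arrays double-stranded by primer extension.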

Sequence | PBM E-score
AAACTGCC | -0.0721
CGATAACA | -0.00173
ATGATGCA | 0.376
ATTGCATA | 0.232
CCGCAGAG | -0.426
AACACGAG | 0.033
ACACAAAT | 0.156
AAGCATGG | -0.204
AGCTAACC | -0.215
ACTGATAT | -0.098
ATGAGGAG | -0.099
AGAAGCCA | -0.0674
ATCGATGC | 0.0314
CCCGTCAC | 0.189
GACGATAA | 0.26
AGCGGCAT | 0.014
CCGACTAG | -0.303
AAATTTAT | 0.218
CTTAATGA | 0.0753
TTCACCAA | 0.112
GTCCAGGA | -0.0496
GCATTTCC | -0.0507
GATCTTCC | -0.269
AATCACGG | 0.0732
AGTATCAC | 0.0187

Sequence | PBM E-score
ATGCGGAA | -0.145
CCACACGG | -0.206
GTCGTACA | 0.0687
CGGCACAG | -0.158
GAGATTTA | 0.0465
AACACTAC | 0.246
AGAATCGC | 0.0254
CACTATGC | 0.0454
CCGCGAAA | -0.116
ACGCCAAA | 0.0451
CAAAGCTA | 0.063
AGCCGTGC | -0.209
ACTTAATA | 0.24
GGATTGAC | 0.118
ATACCGGC | -0.103
CTGTTTAA | -0.027
AATCGCAA | 0.0307
AGTACGGG | -0.15
TAAGCTAA | 0.211
CCTTCGTA | 0.143
CTTTCGGC | -0.153
CACATCTG | -0.193
GTCGCCAC | -0.0967
AAGTAAAC | 0.084
AAACAAAG | 0.0681

Sequence | PBM E-score
ATGGATAC | 0.0157
TCTGGTAA | -0.00416
AGGCACCG | -0.0605
GAGAGGCA | -0.221
CCACACCA | 0.15
CGATAGTC | 0.0804
TCATTTAA | 0.191
CGTGGCAA | 0.0075
GTACCGAC | -0.0426
AGAACTCT | -0.0315
ACTAAACC | -0.0844
ACGAGTGC | 0.159
ATCGGCTA | 0.00533
TATAACGA | 0.186
CCCACCTA | -0.0313
CCGTTGAA | -0.137
CAGAATCC | -0.0689
CATATAGC | 0.0785
CGCCACCA | -0.102
ATGGTTAC | 0.31
GCGTAACC | 0.328
ACAGTAAA | 0.193
AAGGGCAG | -0.284
CGACTTAC | -0.0988
GGATTGGA | -0.122

Sequence | PBM E-score
GAGTGACC | -0.342
GGCAATTA | -0.00647
CTGCAGGA | -0.0277
CATACACG | 0.248
GTAAGCGA | 0.222
CCATAAAC | -0.0791
CAGGTAAG | -0.156
CGAGCTCA | -0.0532
AGGCGGTA | -0.19
AATAGCGT | 0.256
TCCGAGAA | -0.0476
GAATGACA | 0.249
GGTCCCAC | -0.0859
GGGTGGCA | -0.324
AAGAATGT | 0.0867
CGACCCGA | -0.21
CCAGGCGG | -0.304
AGACGCGC | 0.00774
AGGTCGAA | -0.0764
CAGCGAAA | -0.101
CACTTTAC | 0.17
ATTAAGGC | -0.083
CGTCTAAC | 0.192
CTAATCAA | 0.156
AGGACGCC | -0.21

Sequence | PBM E-score
ATGGGGTG | -0.00552
GGTTACGA | 0.0671
GTGGCCTA | -0.105
CCCTTTCA | -0.0484
ACATTATA | 0.14
CTCTTCCA | -0.193
GCTAATAC | -0.0215
CACGGGGA | -0.289
ATTACAAG | 0.164
ATGAATCA | 0.0872
GACAAGTC | -0.322
TTGATAAA | 0.208
ATAACGGG | 0.00173
CCGTATCA | -0.0131
TAGGTTAA | 0.0202
CAACCGCC | -0.131
CGGTTCCC | -0.335
CTCCAGAC | -0.13
GGGACAAA | -0.0851
CTTATGTC | 0.159
TCCGTTAA | 0.0364
AAGCGCTT | 0.0852
CCGAGACA | -0.134
CCGTATAC | 0.0259
ATCCGGTG | -0.0956

Sequence | PBM E-score
CATGGCCC | -0.157
ACTATTCA | 0.0605
CTATAGCC | -0.164
CGGTGCAC | -0.273
CCGAAGGA | -0.167
CGGCACTC | -0.31
AGAGCTAC | -0.091
ATTCAGAA | 0.0641
CACGATCC | -0.0812
AGGGGCCC | -0.144
GCACAAGC | -0.0721
CTAATTAG | 0.222
TGATAGCA | 0.0757
CTGTCCGC | -0.181
ATGTAAAT | 0.246
AAATGATA | 0.266
GACAACCC | -0.238
GACTTTCA | -0.137
AGCGGATG | -0.216
ATACACGG | -0.00094
CGCATACG | 0.378
CCTTAAGG | -0.0977
ATCAGTCC | -0.326
GGGTTGAA | -0.202
ACCTGCGT | 0.157

Sequence | PBM E-score
CGCTAGGA | -0.00632
GATGGGGA | -0.203
GAAGTAGC | -0.126
AACCACAT | 0.222
GTGGCCAA | -0.0652
GGCCTTTA | -0.225
CAAAGCCG | -0.0969
GGGAATCA | -0.179
AAGGGACG | 0.0537
TAAAGGCA | -0.0114
ACAAAAGT | 0.149
CGAGTAGA | -0.131
ACAAAATC | 0.0929
ACTTGATG | 0.142
GCACATAA | 0.137
CAGCGCCG | -0.22
CCCCTTCG | -0.171
CGGAGAAA | -0.132
CAGCAGAC | -0.206
CCAGGTAC | -0.118
AACCTGCC | -0.156
ACGTATCA | 0.438
CCGTGTCC | -0.141
AACTAATA | 0.336
CCAGGTAA | -0.122

Sequence | PBM E-score
TAGAGTAA | 0.0763
GTTGGCAA | 0.0427
AAGGTTCG | -0.0646
AGATCAAG | 0.0987
GCCTAACC | -0.245
TATGTGAA | 0.185
CAAAGTCC | -0.208
AAGAGTGC | -0.164
ACAAGTAT | 0.0711
TCCCGAAA | -0.0277
AATCGCCA | -0.108
AGTGGTAT | 0.00997
TCAAGGAA | -0.0505
ACCACCCA | -0.177
ATGCTCCG | -0.266
AGACTTAC | 0.0305
AATTTGGT | 0.166
ACAGGTAA | 0.117
AATGGATG | 0.0616
AATGTTTC | -0.0708
ACACAACA | 0.0461
GTTCTGGA | -0.0524
GATATAAC | 0.119
GTGGGGGA | -0.282
CTTCCCAA | -0.0745

Sequence | PBM E-score
ATCACCCG | -0.0918
CGATTGGC | -0.162
CTCCAGCC | -0.271
CTCGTCCC | -0.11
ATTATTTG | 0.21
ACCTTTCG | -0.149
GAGGCTGA | -0.147
ATATCTCA | 0.193
GGCGAGTA | -0.202
GAGTCCGA | -0.11
GCCTAAGA | -0.144
GTGACTAA | 0.0839
ACCCACGA | -0.0425
TACGAGTA | 0.254
TCTCCTCA | -0.108
AAGTAAGC | 0.0436
CCGAGGTC | -0.355
ATCCTTAA | -0.0978
GGAGTCTA | -0.282
